# Test results as given in ChEMBL document CHEMBL4888484, “Replenishing the malaria drug discovery pipeline: Screening and hit evaluation of the MMV Hit Generation Library 1 (HGL1) against asexual blood stage Plasmodium falciparum ,using a nano luciferase reporter read-out” (2022).
# In all, about 150,000 compounds went through this assay and about 540 (0.36%) showed an effect of 50% or more. The list shows a part of the results.
# Test system: Plasmodium falciparum
# Experiment: Primary screen in NF54 nanoGlo assay, in single point, at 2uM, 72h; a lower Z score goes with more inhibition
# Assay type: functional, Erythrocyte
# Settings: timepoint 72 hour
Compound,% Inhibition,Z score
CCc1ccc2nccc(N3CCC(n4ccnn4)CC3)c2c1,-6%,0.98
COc1cc(NCc2cc(F)cc3c(C)c(C)[nH]c23)ncn1,-3%,0.34
C[C@@H]1CN(Cc2nnnn2C)C[C@H](C)O1,-1%,0.2
CCn1c(CC2CCN(C(=O)c3c[nH]c(C)n3)CC2)nn(C)c1=O,1%,-0.17
Cc1noc(OCC2CCS(=O)(=O)CC2)n1,-4%,0.62
CC(C)n1nccc1C(=O)N[C@@H](C)c1nc2cc(Cl)ccc2[nH]1,-5%,0.45
Cc1cccc(OCc2nc(CN(C)C(=O)Cc3ccccc3)cs2)c1C,-21%,2.5
O=S(=O)(CCn1cc(CCc2ccccc2)nn1)N1CCCC1,-13%,2.38
O=C(NC1(C(=O)O)CCC1)C1CC1c1ccccc1OC(F)(F)F (stereo unspecified),4%,-0.77
FC(F)Oc1cccc(CN2CC(c3ccccn3)C2)c1,-2%,0.45
CCN(C)S(=O)(=O)N1CCN(Cc2c(C)nc3n2CCCC3)CC1,49%,-5.81
Cc1cc(F)ccc1NC(=O)CN1CCC2(CCC(=O)N2C)CC1,-3%,0.46
O=C(CO)N1CCC[C@@]2(CCC(=O)N(Cc3ccccc3)C2)C1,-2%,0.33
CC(O)(CN1CCCC(N2CCCS2(=O)=O)C1)C(F)(F)F (stereo unspecified),3%,-0.49
CN(CCCNC(=O)[C@H]1CCCN(c2nnc3ccccn23)C1)c1ccccc1,-18%,2
CC(C)N(CC(=O)N1CCn2cccc2[C@H]1c1cccc(Oc2ccccc2)c1)C(=O)c1cccc(F)c1,10%,-1.02
CN(CC(=O)Nc1ccc(F)cc1)C(=O)c1cccc(C(=O)N(C)CC(=O)Nc2ccc(F)cc2)n1,14%,-1.82
CC(=O)NC[C@H]1CCCN(c2nc3nonc3nc2N(C)Cc2ccccc2)C1,8%,-1.61
COc1ccccc1C(=O)Nc1cc(-c2ccccn2)no1,-7%,1.3
COCCN(Cc1ccc(OC)c(OC)c1)CC1CCN(Cc2ccccc2OC)CC1,-6%,1.1
CCOC(=O)N1CCC(NC(=O)c2cn(C[C@H](O)c3ccccc3F)nn2)CC1,-13%,2.49
O=C([C@@H]1C[C@H](F)CN1S(=O)(=O)c1ccc(F)c(F)c1)N1CCc2ccccc2C1,-2%,0.27
COCc1ccc(C(=O)N2C[C@H](OC)C[C@H]2c2nncn2C)cc1,-8%,1.1
